# The supplement of paper PMC12217912
# Some of the results follow. The full chains were built here from the parent and the listed change. Inactive controls read about 0.05.
# B1: TEV protease; numbered along this chain (parent)
# chain: MGESLFKGPRDYNPISSSICHLTNESDGHTTSLYGIGFGPFIITNKHLFRRNNGTLVVQSLHGVFKVKDTTTLQQHLVDGRDMIIIRMPKDFPPFPQKLKFREPQREERICLVTTNFQTKSMSSMVSDTSCTFPSGDGIFWKHWIQTKDGQCGSPLVSTRDGFIVGIHSASNFTNTNNYFTSVPKNFMELLTNQEAQQWVSGWRLNADSVLWGGHKVFMVKPEEPFQPVKEATQL
# Variants of: B1
# Assay: raw area under fraction-flipped curve 0-4 h after induction (AUC4h, not background-subtracted), DNA-recorder readout of cleavage of the substrate (dimensionless); higher = more cleavage of the substrate by the protease variant
# Settings: temperature: 34 °C; time window: 0-4 h after rhamnose induction
# Protocol: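 In vivo DNA recorder in E. coli TOP10(DE3) ΔrhaA at 34 °C. Each TEVp single-site mutant (parent TEVp 0) is paired with a single-site variant of the 7-mer TEVs (canonical ENLYFQ|S). The substrate sits between flexible linkers in a Bxb1-sfGFP-TEVs-SsrA fusion, so cleavage stabilises Bxb1 and speeds flipping of a recombination array, read by NGS. The value is the raw area under the fraction-flipped curve over 0-4 h after rhamnose induction (AUC4h), with ≥20 reads per time point. It is not background-subtracted; inactive controls average about 0.047.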
# 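Further: Bxb1 expression induced with 0.2% (w/v) L-rhamnose at OD600 near 0.5, cultures sampled hourly, flipped fraction per protease–substrate barcode pair counted by paired-end Illumina sequencing.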
Variant,area with substrate ENLYFAS,area with substrate ENLYFCS,area with substrate ENLYFDS,area with substrate ENLYFES,area with substrate ENLYFFS,area with substrate ENLYFGS,area with substrate ENLYFHS,area with substrate ENLYFIS,area with substrate ENLYFKS,area with substrate ENLYFLS,area with substrate ENLYFMS,area with substrate ENLYFPS,area with substrate ENLYFRS,area with substrate ENLYFSS,area with substrate ENLYFTS,area with substrate ENLYFVS,area with substrate ENLYFWS,area with substrate ENLYFYS,area with substrate ENLYFNS
E25K,0.0604,0.0434,0.0562,0.0619,0.0641,0.0601,0.0546,0.0564,0.055,0.0539,0.0366,0.0687,0.046,0.0626,0.0624,0.0707,0.0563,0.0571,
I43R,0.0355,0.0585,,0.0492,0.0336,0.0333,0.0495,0.0267,0.051,,0.0452,0.0433,0.0467,0.0388,,0.0364,0.04,0.0524,0.0478
I43K,0.0449,,0.0483,0.063,0.0586,,0.0391,0.0461,,,0.0499,0.0421,0.0458,0.0431,0.0525,0.0571,,0.0417,0.0424
G39A,0.0617,,0.0596,0.0386,0.0383,,0.049,0.0352,0.0365,0.0331,0.0347,0.0442,0.047,,0.0659,,0.0333,,0.0435
N24C,0.0617,0.0735,,0.0634,0.0541,,0.0618,0.0625,,,0.0606,0.0574,0.0626,,,0.0634,0.0584,0.0727,0.0545
N24R,0.0544,0.0556,,0.0653,0.0721,,0.0533,0.0583,0.0529,0.0566,0.0466,0.0227,0.0612,,0.0487,0.0751,,0.0545,0.0511
N24W,0.0507,0.0433,0.0645,0.0604,0.0685,,0.06,0.0636,0.0584,0.0356,0.0609,0.0641,0.0516,0.0563,0.0575,0.0597,0.0945,0.0717,0.0695
N24Q,0.0572,0.0594,,0.0658,0.0604,0.0524,0.0362,0.0601,0.0695,,0.0633,0.0649,0.0497,0.0656,0.0616,,,,0.0571
N24D,0.0137,0.0657,0.0621,0.0571,0.0603,0.0609,0.0432,0.0474,0.0563,0.0614,0.0625,0.0515,0.0721,0.0777,0.0599,0.0267,0.0438,0.0408,0.0558
N24T,0.0598,0.0489,,0.0657,0.0606,,,0.0605,0.0649,0.0695,0.0401,0.0528,0.0577,,0.0553,,0.0677,0.0571,
N24H,0.0631,0.0427,,,0.0727,,0.0546,0.0535,,,0.0557,0.0565,0.0497,,0.0614,,,,0.0674
T44A,0.0598,0.0337,,,0.064,0.0648,,0.0577,0.06,0.0478,0.0631,0.0571,,0.0576,0.0324,,0.0529,0.0443,0.0507
T44F,0.0506,0.0507,,0.0588,0.0574,,,0.0479,0.0554,,0.0459,0.0486,0.0506,0.0472,0.0519,,0.0469,0.0579,0.0474
T23P,0.0339,0.04,0.0372,0.0654,0.0442,0.0477,0.038,0.0367,0.0558,,0.0348,0.0495,0.0465,0.0639,0.0441,0.041,0.0463,0.0429,
L48C,0.0511,0.0586,,0.0608,0.0533,0.0575,0.0502,0.0592,0.0651,,,0.062,,,0.0645,0.0487,,,0.0639
L48E,0.0539,0.059,0.06,0.0588,0.0671,,,0.0584,0.064,,0.0636,0.0607,0.06,,0.0657,,,,
L48G,0.0588,0.0638,0.0612,0.0584,0.0798,0.0471,,0.0545,0.0672,0.0763,0.0603,0.055,0.0631,0.0626,0.068,0.0687,0.0602,0.0552,0.0622
L48F,0.0718,0.0952,,0.0662,0.0656,,0.0667,0.0589,0.0567,,0.0658,0.0578,,0.0472,0.0622,0.0681,0.0503,,0.0715
L48A,0.0324,0.0718,0.0642,0.0609,0.0735,,,0.0591,,0.0628,0.063,0.0588,0.0576,0.051,0.0562,,0.0532,,0.0639
L48I,0.0624,0.0655,0.0561,0.0569,0.0717,0.058,0.0492,0.0559,,,0.0608,0.0627,0.0805,,0.0632,,0.0538,0.0836,0.0603
G28T,0.0579,,,0.0592,0.0904,0.0506,0.047,0.0461,0.0559,,0.066,0.0462,0.0614,,0.0477,,0.0537,0.0634,0.051
G28L,0.0481,0.0642,0.0596,0.0641,0.0616,0.0604,0.0672,0.0534,0.0586,,0.0562,0.0475,0.073,0.0526,0.0571,0.0634,0.058,0.0612,
T30S,0.0568,0.0503,0.0687,0.0588,0.0674,0.0447,0.0766,0.0586,0.0676,0.0453,0.0574,0.062,0.0608,,0.0656,0.0606,,0.0343,0.0643
